# Laboratory results taken from PubChem BioAssay AID2675 (National Center for Advancing Translational Sciences (NCATS), 2010).
# Out of some 280,000 compounds screened, about 100 (0.036%) were called active. The inconclusive results got no clear call from the source; some entries with a clear call stand among them for comparison. The call rests on the fitted dose curve; in most records, active means well fitted inhibition curve with a large enough effect in the signal ratio, with a control signal flat (not every such curve was filed as active); inconclusive means small, poorly fitted or top-dose-only effect, or effect the other way, or a change in a side signal; inactive means no such curve, though single readings can be large or run the other way; the % refers to the signal ratio. Where the call is inconclusive, the potency comes from a doubtful curve fit. “Side channel” marks fits to a control or component signal instead of the main read-out.
# Target: Muscleblind-like protein 1 (Homo sapiens) (UniProt Q9NR56)
# Assay: qHTS Assay for Inhibitors of MBNL1-poly(CUG) RNA binding
# Settings: TR-FRET MBNL1-His/biotin-(CUG)12 binding, 665/545 ratio; activity change, negative = inhibition: at 57.5 µM (top of the series)
# Method in brief: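 TR-FRET readout: Ex 340 nm, 665/545 nm emission ratio, normalized to buffer-only (basal) and MBNL1-(CUG)12 controls. Complex of MBNL1-His with Biotin-(CUG)12, compounds 92 nM–58 uM, incubated 60 min at room temperature.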
# On the % scale 0 is the no-effect control and ±100 the full control effect; potency means the concentration at half of the fitted maximal effect; tags describe the fitted curve by direction and shape or compound fluorescence and quenching.
# UniProt Q9NR56, sequence (Q9NR56 whole entry, looked up): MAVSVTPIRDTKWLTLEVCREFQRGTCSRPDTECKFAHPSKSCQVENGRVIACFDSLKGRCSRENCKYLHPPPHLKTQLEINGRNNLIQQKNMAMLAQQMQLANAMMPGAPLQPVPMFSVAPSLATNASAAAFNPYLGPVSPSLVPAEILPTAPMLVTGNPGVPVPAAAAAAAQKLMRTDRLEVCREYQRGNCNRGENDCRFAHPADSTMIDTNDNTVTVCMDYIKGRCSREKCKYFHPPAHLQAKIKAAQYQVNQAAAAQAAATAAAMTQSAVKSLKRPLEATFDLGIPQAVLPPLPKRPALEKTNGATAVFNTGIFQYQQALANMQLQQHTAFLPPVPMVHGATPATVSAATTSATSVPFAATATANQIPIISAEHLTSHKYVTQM
SMILES,Potency,"activity change, negative = inhibition"
COc1ccc(C(=O)NCC(=O)OCC(=O)Nc2cc([N+](=O)[O-])ccc2F)cc1,"inconclusive: 22.4 µM [quencher, side channel, single point]",–
CC1=NN(c2ccccc2)C(=O)C1C=Nc1ccc(N(C)C)cc1 (configuration not stated),"inconclusive: 8.91 µM [quencher, side channel, partial curve]",–
Cc1ccc(-c2nnc(Nc3cccc(O)c3)c3ccccc23)cc1S(=O)(=O)NCCO,"inconclusive: 28.2 µM [quencher, side channel, partial curve]",–
CCN1C(=O)c2cccc3c(S(=O)(=O)Nc4c(C)n(C)n(-c5ccccc5)c4=O)ccc1c23,"inconclusive: 28.2 µM [quencher, side channel, single point]",–
CC(NC(=S)Nc1ccc([N+](=O)[O-])cc1)c1ccncc1 (configuration not stated),"inconclusive: 25.1 µM [quencher, side channel, partial curve]",–
CCOC(=O)N1CCC(NC(=O)CS(=O)(=O)Cc2nc(-c3ccc(OC)cc3)oc2C)CC1,–,inactive: -1.48%
CSc1nc2nc3c(c(=O)n2[nH]1)CCC3,"inconclusive: 35.5 µM [fluorescent, side channel, single point]",–
CC(=O)Nc1cccc([N+](=O)[O-])c1,"inconclusive: 25.1 µM [quencher, side channel, partial curve]",–
O=C(Nc1nccs1)c1ccc(-c2ccccc2[N+](=O)[O-])o1,"inconclusive: 39.8 µM [quencher, single point]",–
Cc1cc(-c2ccc(Cl)cc2Cl)c(C#N)c(=O)[nH]1,"inconclusive: 31.6 µM [fluorescent, side channel, single point]",–
CCOC(=O)N1CCN(Cc2nc3ccc([N+](=O)[O-])cc3c(=O)n2-c2cccc(OC)c2)CC1,"inconclusive: 6.31 µM [quencher, side channel, partial curve]",–
CCOC(=O)Cc1c(C)c2c(O)cc(O)cc2oc1=O,–,inactive: 16.9%
CCOC(=O)C1=C(CSc2nc3c(cc2C#N)CN(C)CC3)OC(N)=C(C#N)C1c1ccccc1 (configuration not stated),"inconclusive: 39.8 µM [quencher, side channel, single point]",–
C=C(C)CNC(=S)NNC(=O)c1ccc(Br)cc1,"inconclusive: 0.282 µM [fluorescent, side channel, full curve]",–
CN1CCc2c(n(CC(O)CN3C(=O)c4ccccc4S3(=O)=O)c3ccccc23)C1=O (configuration not stated),"inconclusive: 35.5 µM [quencher, side channel, single point]",–
Cc1cc(NC(=O)CSc2nc3c(c(-c4cccnc4)c2C#N)CCC3)no1,"inconclusive: 39.8 µM [fluorescent, side channel, single point]",–
CN(CC(=O)Nc1cccc(F)c1)C(=O)c1ccc(N2CCOCC2)c([N+](=O)[O-])c1,"inconclusive: 20 µM [quencher, side channel, single point]",–
CCN(CC)CCn1c(N)c(S(=O)(=O)c2ccccc2)c2nc3ccccc3nc21,"inconclusive: 28.2 µM [quencher, side channel, single point]",–
Cc1cccc(-n2cccc2)c1C#N,"inconclusive: 100 µM [inhibitor, single point]",–

SMILES,Potency,"activity change, negative = inhibition"
Cc1ccc2c(c1)nnn2C1CCN(S(=O)(=O)c2ccc(C(=O)N3C(C)CCCC3C)cc2)CC1 (configuration not stated),–,inactive: -3.15%
CC1CCN(c2ncnc3nc[nH]c23)CC1,"inconclusive: 2.82 µM [quencher, side channel, partial curve]",–
N#Cc1c(NC(=O)c2ccc([N+](=O)[O-])o2)sc2c1CCC2,"inconclusive: 3.55 µM [quencher, side channel, full curve]",–
O=[N+]([O-])c1cc(C(F)(F)F)ccc1NCCc1ccncc1,"inconclusive: 10 µM [quencher, side channel, partial curve]",–
O=C(Nc1ccc(O)cc1)c1ccc(C(=O)c2ccccc2)o1,"inconclusive: 10 µM [quencher, side channel, partial curve]",–
CCCCCOc1ccc(NC(=O)C2OC3OC(C)(C)OC3C3OC(C)(C)OC23)cc1 (configuration not stated),"inconclusive: 44.7 µM [fluorescent, side channel, partial curve, poor fit]",–
COc1ccc(Br)cc1CN1CCN(Cc2c[nH]c3ccccc23)CC1,–,inactive: -7.43%
Cc1ccc(Cl)cc1NC(=O)C1CCCN1S(=O)(=O)c1ccc(-c2ccc(=O)[nH]n2)s1 (configuration not stated),"inconclusive: 28.2 µM [quencher, side channel, partial curve]",–
Cc1cc(C[n+]2ccccc2)c2nsnc2c1,"inconclusive: 17.8 µM [quencher, side channel, partial curve]",–
CCN(CC)C(=O)Cn1cnc2sc(C(=O)Nc3cc(OC)c(OC)c(OC)c3)c(C)c2c1=O,"inconclusive: 28.2 µM [quencher, side channel, single point]",–
Cc1ccc(C(=O)NNc2c3ccccc3nc3ccccc23)cc1,"inconclusive: 11.2 µM [quencher, side channel, partial curve]",–
CC(=O)N(/N=C/c1ccc([N+](=O)[O-])o1)c1nc2ccccc2c(=O)n1-c1ccccc1,"inconclusive: 14.1 µM [quencher, side channel, partial curve]",–
COc1ccc(-c2cc(=O)oc3cc(OCc4nn[nH]n4)ccc23)cc1,"inconclusive: 28.2 µM [quencher, side channel, single point]",–
COc1ccccc1-n1c(=O)c(C#N)c(-c2ccc([N+](=O)[O-])cc2)c2cc(C(=O)c3ccccc3O)cnc21,"inconclusive: 7.08 µM [quencher, side channel, partial curve]",–
Cc1ccc(C(C(=O)NCC2CCCO2)N(C(=O)c2snc(C(N)=O)c2N)c2ccc3c(c2)OCCO3)cc1 (configuration not stated),"inconclusive: 200 µM [inhibitor, partial curve]",–
CCOc1ccc(C2c3c(oc4ccccc4c3=O)C(=O)N2c2ccc(C)cn2)cc1OC (configuration not stated),"inconclusive: 17.8 µM [quencher, side channel, single point]",–
CCN(Cc1ccccc1)c1ccc(/C=N/N=C(N)N)cc1,"inconclusive: 2.82 µM [quencher, side channel, partial curve]",–
Cc1cccc(NC(=S)Nc2ccc(Oc3ccccc3)cc2)n1,–,inactive: -10.4%
O=C(O)c1cccc(N2C(=O)c3ccc4c5c(ccc(c35)C2=O)C(=O)N(c2cccc(C(=O)O)c2)C4=O)c1,"inconclusive: 3.16 µM [quencher, side channel, full curve]",–

SMILES,Potency,"activity change, negative = inhibition"
O=C(O)c1ccc(-c2ccc(O)c(F)c2)cc1,"inconclusive: 0.708 µM [quencher, side channel, partial curve, poor fit]",–
CCCCNc1nnc(CCn2nc(C)c(Br)c2C)s1,–,inconclusive: -20.3% [phenotype inactive]
Clc1ccc(/C=N/NC2=Nc3cccc4cccc2c34)cc1,–,inactive: -0.154%
O=c1c(Cl)c(N/N=C/c2ccc(Br)cc2)cnn1-c1ccccc1,–,inactive: 2.53%
Cc1cc(C)n2nc(C(=O)N/N=C/c3c4ccccc4cc4ccccc34)nc2n1,–,inactive: -7.74%
COCCN(C(=O)CSc1nnc(-c2cccc(OC)c2)n1C)c1c(N)n(Cc2ccccc2)c(=O)[nH]c1=O,–,inactive: -4.29%
C=CCSc1nnc(NC(=O)c2cccc(S(=O)(=O)N(C)c3ccccc3)c2)s1,"inconclusive: 25.1 µM [inhibitor, single point]",–
COC(=O)C1=C(C)N(Cc2ccccc2)C(=NCC(C)C)N[C@H]1c1ccc(Br)cc1,–,inactive: 5.91%
N#C/C(=C\c1cn(CC(=O)N2CCCC2)c2ccccc12)C(=O)NCc1ccc2c(c1)OCO2,"inconclusive: 35.5 µM [quencher, side channel, single point]",–
Cc1cc(C)cc(N2C(=O)C3C4C=CC(C4)C3C2=O)c1 (configuration not stated),–,inactive: -0.0642%
CC(C)CN1C2CCCC1CC(NC(=O)c1ccc([N+](=O)[O-])cc1)C2 (configuration not stated),"inconclusive: 0.0708 µM [quencher, side channel, full curve]",–
C=CCNc1nc(Cl)nc(NC2CCCCC2)n1,–,inactive: -3.66%
CC1=Nc2cc([N+](=O)[O-])ccc2NC(C)(C)C1,"inconclusive: 25.1 µM [quencher, side channel, partial curve]",–
O=C(Nc1ccc([N+](=O)[O-])cc1)N1CCN(C(=O)C2CCCO2)CC1 (configuration not stated),"inconclusive: 28.2 µM [quencher, side channel, partial curve]",–
O=C1OCC2OC(O)C(O)C(O)C2OC(=O)c2cc(O)c(O)c(O)c2-c2c(O)c(O)c3oc(=O)c4c(c(O)c(O)c5oc(=O)c2c3c54)-c2c1cc(O)c(O)c2O (configuration not stated),"inconclusive: 1.58 µM [quencher, side channel, full curve, poor fit]",–
COc1ccc(C2=Nn3c([n+](C)c4ccccc43)SC2)cc1,"inconclusive: 12.6 µM [quencher, partial curve]",–
COc1cccc(NC(=O)C2CCCN(S(=O)(=O)c3cccc4nsnc34)C2)c1 (configuration not stated),"inconclusive: 14.1 µM [quencher, side channel, partial curve]",–
CC(=O)N1CCN(c2ccc(NCc3ccc(C)cc3)cc2)CC1,–,inactive: 9.77%
COc1cc(-c2cc(C(=O)Nc3ccc(N4CCOCC4)cc3)c3ccccc3n2)cc(OC)c1OC,"inconclusive: 39.8 µM [quencher, side channel, partial curve, poor fit]",–
